Laboratory results: PubChem BioAssay AID686979 (National Center for Advancing Translational Sciences (NCATS), 2013)
Values joined by “and” are separate entries in the source; they are usually repeats but may differ in a detail not shown here. Equal entries are not always repeated. Out of some 420,000 compounds screened, about 50,000 (12%) were called active. Inconclusive results, whose numbers are uncertain, are shown with a selection of clear calls. Calls follow the shape of the dose curve; as a rule, active = well fitted inhibition curve with a large enough effect; inconclusive = small, poorly fitted or top-dose-only effect; inactive = flat fitted curve, though single readings scatter. Potencies of inconclusive entries are doubtful fits and often do not repeat.

Assay: qHTS for Inhibitors of human tyrosyl-DNA phosphodiesterase 1 (TDP1): qHTS in cells in presence of CPT; also: nearly all actives have a fitted effect of over 55% in size
Conditions: chicken DT40 Tdp1-/-;hTDP1 cells + 20 nM CPT, ATP luminescence, 48 h; activity change, negative = growth inhibition: at 46.2 µM (top of the series)
Summary of the method: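 Chicken DT40 Tdp1-/- cells stably complemented with human TDP1 were seeded at 400 cells/well in medium containing 20 nM camptothecin, exposed to pin-transferred compounds, and grown at 37 °C for at least 48 hr. Viability was read as ATP luminescence.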
% is scaled to controls: 0 for no effect and ±100 for the full control effect; potency is read from the fitted curve at half-maximal effect; tags tell the direction and shape of the fitted curve.

| Structure (SMILES) | Potency | activity change, negative = growth inhibition |
| --- | --- | --- |
| O=C(N/N=C/c1cccnc1)c1cc(-c2cccs2)nc2ccccc12 | inconclusive: 25.9 µM [inhibitor, single point] |  |
| COc1cccc2c(=O)c(SC(F)(F)C(F)C(F)(F)F)c(C)[nH]c12 (stereo not drawn) | inconclusive: 20.6 µM [inhibitor, single point] |  |
| S=C(NNC(=S)Nc1ccc(Cl)cc1)NNc1ccccc1 | active: 14.6 µM |  |
| COc1cc(CNCc2cccs2)ccc1OCc1ccccc1 |  | inactive: -29.1% |
| CC(=O)c1cccc(S(=O)(=O)N2CCC(C(=O)O)CC2)c1 |  | inactive: 2.58% |
| O=C(CCCN1C(=O)/C(=C\c2ccco2)SC1=S)Nc1cccc2ccccc12 | inconclusive: 29.1 µM [inhibitor, single point] |  |
| CCCOc1ccc(-c2nc(-c3ccc([N+](=O)[O-])cc3)cs2)cc1 | inconclusive: 3.26 µM [inhibitor, full curve, poor fit] |  |
| C[C@H](CO)N1C[C@H](C)[C@@H](CN(C)Cc2ccc(Cl)c(Cl)c2)Oc2ccc(NC(=O)Cn3cnnn3)cc2C1=O | inconclusive: 23.1 µM [inhibitor, single point] |  |
| O=c1c2sccc2nc(SCc2ccc([N+](=O)[O-])cc2)n1Cc1ccccn1 | inconclusive: 18.4 µM [inhibitor, single point] |  |
| Cc1cccc(NC(=O)CNC(=O)CCNC(=O)c2ccc(C(C)(C)C)cc2)c1C |  | inactive: -11.1% |
| COc1ccccc1NC(=O)COc1ccccc1C(=O)Nc1ccccc1 | inconclusive: 35.5 µM [inhibitor, single point] and inconclusive: 29.1 µM [inhibitor, single point] |  |
| CCc1ccc(OCCCCN(C)Cc2ccccc2)cc1 | inconclusive: 29.1 µM [inhibitor, single point] |  |
| Cc1ccc(OCC(=O)NCC2(N3CCN(C)CC3)CCCCC2)cc1 | inconclusive: 29.1 µM [inhibitor, single point] |  |
| Nc1nnc(C(c2ccccc2)c2ccccc2)s1 | inconclusive: 16.4 µM [inhibitor, single point] |  |
| CCOC(=O)N1CCC(N2Cc3cccc(C(=O)Nc4ccccc4OC)c3C2=O)CC1 | active: 23.1 µM |  |
| CC(C)(C)c1ccc(/C=C/C(=O)NCCCn2ccnc2)cc1 | inconclusive: 29.1 µM [inhibitor, single point] |  |
| COc1ccc(NC(=O)c2ccc(S(=O)(=O)N3CC(C)CC(C)C3)cc2)cc1S(N)(=O)=O (stereo not drawn) |  | inactive: -20.6% |
| Cc1cc(C)c2c3c(sc2n1)C1(CCSCC1)C(C#N)=C(N)O3 | inconclusive: 16.4 µM [inhibitor, partial curve] |  |
| Cc1cc(N2C3CCC2CC(O)(c2ccc(F)cc2)C3)nc(-c2ccccc2)n1 (stereo not drawn) | inconclusive: 23.1 µM [inhibitor, single point] |  |
| CCc1ccc(NC(=O)C(=O)NCC(c2ccc3c(c2)OCO3)N2CCN(C)CC2)cc1 (stereo not drawn) | inconclusive: 20.6 µM [inhibitor, single point] |  |
| O/C(=C\Sc1nnc(Cc2ccccc2)o1)c1ccc(F)cc1 |  | inactive: 5.84% |
| Cn1c(=O)c(=O)n(C)c2cc(S(=O)(=O)N3CCC(N4CCCCC4)CC3)ccc21 |  | inactive: 1.63% |
| COc1ccc(Nc2ncc(C(=O)Nc3cccc(Cl)c3)c3ccccc23)cc1 | inconclusive: 18.4 µM [inhibitor, single point] |  |
| O=C(CSCc1ccc(F)cc1)NCc1ccc2c(c1)OCO2 |  | inconclusive: -30.3% [inhibitor] |
| CCOC(=O)C1(Cc2cccc(OC)c2)CCN(C/C=C/c2ccc(OC)cc2)CC1 | active: 5.8 µM |  |

| Structure (SMILES) | Potency | activity change, negative = growth inhibition |
| --- | --- | --- |
| CC(=O)c1c(C)[nH]c(C(=O)COc2cc(C)ccc2C(C)C)c1C | active: 8.2 µM |  |
| CCOC(=O)C1CCCN(C(=O)c2ccc3c(c2)N(C)C(=O)/C(=C/c2ccccc2Cl)S3)C1 (stereo not drawn) | inconclusive: 9.2 µM [inhibitor, partial curve] |  |
| CC1=C(C#N)C(=O)NC(=O)/C1=C\c1ccc(-c2cc(C)c(C)cc2[N+](=O)[O-])o1 | inconclusive: 29.1 µM [inhibitor, single point] |  |
| COc1ccc(-n2nc3c(N4CCC(C(=O)N5CCC(C)CC5)CC4)nnc(C)c3c2C)cc1 | inconclusive: 25.9 µM [inhibitor, single point] |  |
| COc1ccc(Nc2ccccc2C(=O)O)cc1 |  | inactive: -1.53% |
| Cc1ccc(O)c(NC(=O)c2cc(-c3ccc(F)cc3)no2)c1 |  | inactive: -16.7% |
| COc1ccc(CNC(=O)c2ccc(Cn3c(=O)c4cccn4c4cccnc43)cc2)c(OC)c1 |  | inactive: -27.2% |
| O=C(NCCS(=O)(=O)N1CCN(c2ccc(F)cc2)CC1)c1ccc2c(c1)OCO2 | inconclusive: 29.1 µM [inhibitor, single point] |  |
| CCN(CC)C(=O)/C(=C\c1ccncc1)NC(=O)c1ccccc1 |  | inactive: 1.99% |
| NC1=NC(=O)/C(=C\c2ccco2)S1 | inconclusive: 29.1 µM [inhibitor, single point] |  |
| Cc1nc(-c2ccccc2)sc1C(=O)/C=C/c1ccc(Cl)cc1 | active: 14.6 µM |  |
| Cc1ccc(C)c(NC(=O)Cc2nc(CCl)cs2)c1 | active: 25.9 µM |  |
| CC(C)CCNC(=O)c1cnc2sc(N3CCCCCC3)nn2c1=O | active: 16.4 µM |  |
| C=CCn1cc(C(=O)OC)c(=O)c2cc(S(=O)(=O)N(CC)CC)ccc21 |  | inactive: -2.17% |
| CCNC(=S)NNC(=O)Cn1nc(C)cc1C |  | inactive: -3.65% |
| Cc1ccc2[nH]c(-c3ccccc3)c(CN3CCOCC3)c(=O)c2c1 | inconclusive: 29.1 µM [inhibitor, single point] |  |
| CC(=O)NCCN1C(=O)S/C(=C\c2cccs2)C1=O |  | inactive: 5.11% |
| CC(C)c1ccc(NC(=O)C2CCCN(S(=O)(=O)c3cnc[nH]3)C2)cc1 (stereo not drawn) | inconclusive: 25.9 µM [inhibitor, single point] |  |
| CCOC(=O)c1snc(C(=O)NC2CCCCC2)c1N |  | inactive: -13.5% |
| Cc1cccc(/C=C/C(=O)c2ccc(NC3=NCCCS3)cc2)c1 | active: 13 µM |  |
| Cc1ccc(NC(=S)N(CCCN(C)C)Cc2cc3cc4c(cc3[nH]c2=O)OCO4)c(C)c1 |  | inactive: 21.3% |
| Cn1cccc1C(=O)N1CCC2(CCCN(c3ccncc3)C2)CC1 | inconclusive: 25.9 µM [inhibitor, single point] |  |
| O=C(C1CCC1)N1CCCc2cc(S(=O)(=O)N3CCN(c4cccc(Cl)c4)CC3)ccc21 | inconclusive: 20.6 µM [inhibitor, partial curve] |  |
| CCOC(=O)c1nn(-c2ccc(Cl)cc2C)ccc1=O |  | inactive: 2.17% |
| O=C(N/N=C/c1cc(Br)cc(Cl)c1O)c1ccc2c(c1)OCO2 | active: 0.82 µM |  |

| Structure (SMILES) | Potency | activity change, negative = growth inhibition |
| --- | --- | --- |
| CC(Oc1cccc(Cl)c1)C(=O)Nc1nc(-c2ccccn2)cs1 (stereo not drawn) | active: 3.26 µM |  |
| CCOCc1nnc(NC(=O)c2cc(OC)c(OC)c(OC)c2)s1 |  | inactive: -4.53% |
| CCOc1ccc(-n2ccnc2SCC(=O)Nc2cc(C)ccc2C)cc1 | inconclusive: 29.1 µM [inhibitor, single point] |  |
| O=[N+]([O-])c1cc(Cl)cc(/C=N/NC(=S)Nc2cc(S(=O)(=O)N3CCOCC3)ccc2Cl)c1O | inconclusive: 29.1 µM [inhibitor, single point] |  |
| Cc1ccc(S(=O)(=O)Oc2ccccc2/C=N/NC(=O)c2nn(C)cc2[N+](=O)[O-])cc1 | inconclusive: 29.1 µM [inhibitor, single point] |  |
| CC(=O)Nc1ccc(NC(=O)CS(=O)(=O)c2cn(CC(=O)N3CCCCC3)c3ccccc23)cc1 |  | inactive: -10.5% |
| O=C(NC1CCCCCC1)C(=O)NC1CC1 |  | inconclusive: -32.8% [inhibitor] |
| COc1ccc(OC)c(S(=O)(=O)Nc2ccc(O)c3ccccc23)c1 | active: 2.06 µM |  |
| O=C1C(O)=CC(=C(c2ccccc2)c2ccccc2)c2ccccc21 | inconclusive: 29.1 µM [inhibitor, single point] |  |
| Cc1ccc(CNC(C)(C)CO)cc1 |  | inactive: -2.67% |
| CCc1c(C)sc(NC(=S)N2CCN(CC)CC2)c1C(=O)OC | inconclusive: 29.1 µM [inhibitor, single point] |  |
| COc1cccc(-n2c(SCc3cccc(C)c3)nc3c([nH]c4ccccc43)c2=O)c1 | inconclusive: 29.1 µM [inhibitor, single point] |  |
| CCOCc1cc(CN2CCN(c3cccc(C(F)(F)F)c3)CC2)c(O)c2ncccc12 | active: 6.51 µM |  |
| COC(=O)CC1(C(=O)OC)Oc2ccc(Br)cc2C(=O)N1c1cc(Cl)cc(Cl)c1 (stereo not drawn) | inconclusive: 18.4 µM [inhibitor, single point] |  |
| COc1ccccc1NC(=O)c1cc2ccc(O)cc2o/c1=N\O | inconclusive: 20.6 µM [inhibitor, single point] |  |
| CC(C)COc1ccc(C(=S)N2CCCC2)cc1 | inconclusive: 18.4 µM [inhibitor, single point] |  |
| Cn1c(CC(=O)Nc2ccccc2F)nnc1SCC(=O)NC1CCCCC1 |  | inactive: 4.1% |
| NS(=O)(=O)c1ccc(NC(=S)NCc2cccs2)cc1 |  | inactive: 1.26% |
| CC(C)CN(C(=O)/C=C/c1nc2ccccc2s1)C1CCS(=O)(=O)C1 (stereo not drawn) | inconclusive: 29.1 µM [inhibitor, single point] |  |
| O=C(c1ccc(CS(=O)c2ccc(Br)cc2)o1)N1CCN(C2CCCCC2)CC1 (stereo not drawn) | inconclusive: 23.1 µM [inhibitor, single point] |  |
| COc1cc(C(=O)OC2CCCCC2=O)cc(OC)c1C (stereo not drawn) | inconclusive: 10.3 µM [inhibitor, partial curve] |  |
| COc1ccc(N2CCN(C(=O)CSc3ncnc4c3cnn4-c3ccccc3C)CC2)cc1 | inconclusive: 2.59 µM [inhibitor, full curve] |  |
| COCn1c(COc2ccc3ccccc3c2)nc2ccccc21 | inconclusive: 29.1 µM [inhibitor, single point] |  |
